{"source": "patent US20200369766A1", "about": "(LEIDOS, published 2020)", "key": {"Tag1-LAG3 [1]": {"target": "Tag1-LAG3", "assay": "HTRF LAG3/MHC-II; Ab log M -11.1175"}, "Tag1-LAG3 [2]": {"target": "Tag1-LAG3", "assay": "HTRF LAG3/MHC-II; Ab log M -11.7196"}, "Tag1-LAG3 [3]": {"target": "Tag1-LAG3", "assay": "HTRF LAG3/MHC-II; Ab log M -6.30103"}, "Tag1-LAG3 [4]": {"target": "Tag1-LAG3", "assay": "HTRF LAG3/MHC-II; Ab log M -8.10721"}, "Tag1-LAG3 [5]": {"target": "Tag1-LAG3", "assay": "HTRF LAG3/MHC-II; Ab log M -9.31133"}, "Tag1-LAG3 [6]": {"target": "Tag1-LAG3", "assay": "HTRF LAG3/MHC-II; Ab log M -9.91339"}}, "note": "The source holds more than one record for some entries. The other results are left out here. There may be further records. The values listed for one entry appear to be repeats (runs, samples, wells or individuals); a mean can stand among them.", "data": [{"substance": "anti-human LAG3 antibody (Novoprotein #GMP-A092, Lot 0331158)", "values": [{"measurement": "HTRF ratio", "setting": "Tag1-LAG3 [1]", "result": "9030, 9150, 8990, 9100, 9300, 8450 [columns of one line]"}, {"measurement": "HTRF ratio", "setting": "Tag1-LAG3 [2]", "result": "9010, 8680, 8550, 9000, 9330, 8890 [columns of one line]"}, {"measurement": "HTRF ratio", "setting": "Tag1-LAG3 [3]", "result": "2260, 2360, 2380, 2230, 2090, 2350 [columns of one line]"}, {"measurement": "HTRF ratio", "setting": "Tag1-LAG3 [4]", "result": "3200, 3240, 3170, 3400, 3260, 3120 [columns of one line]"}, {"measurement": "HTRF ratio", "setting": "Tag1-LAG3 [5]", "result": "7220, 7410, 7300, 7240, 7260, 7470 [columns of one line]"}, {"measurement": "HTRF ratio", "setting": "Tag1-LAG3 [6]", "result": "8480, 8640, 8450, 8990, 8530, 8600 [columns of one line]"}]}]}
